In all, about 81,000 sequences were measured (“one-hybrid fitness for binding NBS DNA”: median about -0.1, highest 2% from about 0.36 on). This is one part of the list.
B1: Caulobacter ParB omega fusion; a variant is named by its letters at X, in order, B8GW30 (parent)
chain: MESVVVGEPGMSEGRRGLGRGLSALLGEVDAAPAQAPGEQLGGSREAPIEILQRNPDQPRRTFREEDLEDLSNSIREKGVLQPILVRPSPDTAGEYQIVAGERAWRAAQRAGLKTVPIMVRELDDLAVLEIGIIENVQRADLNVLEEALSYKVLMEKFERTQENIAQTIGKSXSHVANXMRLLXLPDEVQSYLVSGELTAXHARAIAAAADPVALAKQIIEGGLSVRETEALARKAPNLSAGKSKGGRPPRVKDTDTQALESDLSSVLGLDVSIDHRGSTGTLTITYATLEQLDDLCNRLTRGI

Variants of: B1
Assay: one-hybrid fitness for binding NBS DNA (the Noc-binding site; scaled: cognate 1, non-cognate 0); higher = stronger binding
Details: with NBS DNA site
Method in brief: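 Caulobacter ParB libraries with four specificity codons randomised were screened by bacterial one-hybrid selection in the E. coli USO strain, using a HIS3 reporter whose site lies 19 bp from the promoter. Selection ran for 48 hours at 37°C on M9 lacking histidine, with 0.1 mM IPTG and 5 mM 3-AT. Plasmids were Illumina-sequenced before and after selection, three replicate libraries were pooled, and variants with under 10 reads were dropped. Fitness is the log change in each variant's read ratio to wild type, rescaled against the cognate and non-cognate sites.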

Variant | one-hybrid fitness for binding NBS DNA
PYWD | ≤ 0.2
PVWC | ≤ 0.2
YHPW | ≤ 0.2
VQHT | ≤ 0.2
RFSQ | ≤ 0.2
TYFG | ≤ 0.2
SFDR | ≤ 0.2
MQDV | ≤ 0.2
KHIR | ≤ 0.2
KEAT | ≤ 0.2
GSHV | ≤ 0.2
CDLV | ≤ 0.2
CRPC | ≤ 0.2
IFTI | ≤ 0.2
MWGP | ≤ 0.2
LACW | ≤ 0.2
RHLQ | ≤ 0.2
RKPT | 0.236
MPWS | ≤ 0.2
GSEF | ≤ 0.2
SPRR | ≤ 0.2
AAYW | ≤ 0.2
YTSK | ≤ 0.2
THKS | ≤ 0.2
PVRC | ≤ 0.2
TWVY | ≤ 0.2

Variant | one-hybrid fitness for binding NBS DNA
HVVR | ≤ 0.2
RFWW | ≤ 0.2
SIKC | ≤ 0.2
DTLW | ≤ 0.2
GQTG | ≤ 0.2
RKRM | 0.258
TPWS | ≤ 0.2
FDYL | ≤ 0.2
ERIL | ≤ 0.2
IALL | ≤ 0.2
VVHY | ≤ 0.2
MCLK | ≤ 0.2
AHHD | ≤ 0.2
TGFG | ≤ 0.2
IRYQ | ≤ 0.2
QTSD | ≤ 0.2
CESR | ≤ 0.2
APSC | ≤ 0.2
GTAG | ≤ 0.2
LRMN | ≤ 0.2
QSSL | ≤ 0.2
PFGP | ≤ 0.2
WRIR | ≤ 0.2
AKKS | ≤ 0.2
NSLP | ≤ 0.2
RQMC | ≤ 0.2

Variant | one-hybrid fitness for binding NBS DNA
MHMR | ≤ 0.2
PIFT | ≤ 0.2
NVSS | ≤ 0.2
KGAR | ≤ 0.2
HAVR | ≤ 0.2
IRTH | ≤ 0.2
VACR | ≤ 0.2
VNHV | ≤ 0.2
DVKF | ≤ 0.2
LTAE | ≤ 0.2
GILT | ≤ 0.2
NHAT | ≤ 0.2
WGFR | ≤ 0.2
HIAC | ≤ 0.2
RQVQ | ≤ 0.2
RVLM | ≤ 0.2
SWSP | ≤ 0.2
PGFL | ≤ 0.2
SLHA | ≤ 0.2
VHHD | ≤ 0.2
RKHT | 0.645
ACRS | ≤ 0.2
SKAY | ≤ 0.2
TMLV | ≤ 0.2
DINP | ≤ 0.2
KTWP | ≤ 0.2

Variant | one-hybrid fitness for binding NBS DNA
RLMP | ≤ 0.2
HHQA | ≤ 0.2
IMLV | ≤ 0.2
LCQG | ≤ 0.2
AEPM | ≤ 0.2
LGRS | ≤ 0.2
SQVK | ≤ 0.2
GHVC | ≤ 0.2
QASE | ≤ 0.2
DVVY | ≤ 0.2
LCAS | ≤ 0.2
SQGI | ≤ 0.2
WHPR | ≤ 0.2
PTDL | ≤ 0.2
VVNT | ≤ 0.2
NMYK | ≤ 0.2
THYM | ≤ 0.2
SDSR | ≤ 0.2
DYRT | ≤ 0.2
LSVR | ≤ 0.2
KRDI | ≤ 0.2
DPPK | ≤ 0.2
VHMR | ≤ 0.2
RQWT | 0.207
KLQI | ≤ 0.2
AHME | ≤ 0.2

Variant | one-hybrid fitness for binding NBS DNA
PKCS | ≤ 0.2
TSSQ | 0.493
CFAS | ≤ 0.2
NYWG | ≤ 0.2
RTDA | ≤ 0.2
ALNR | ≤ 0.2
GAFF | ≤ 0.2
TETE | ≤ 0.2
PKHP | ≤ 0.2
LYCE | ≤ 0.2
KPRF | ≤ 0.2
VNAM | ≤ 0.2
LVVL | ≤ 0.2
LAPF | ≤ 0.2
RGPM | ≤ 0.2
KARG | ≤ 0.2
PYGL | ≤ 0.2
CECW | ≤ 0.2
TPNC | ≤ 0.2
GEMY | ≤ 0.2
KHTY | ≤ 0.2
YKGS | ≤ 0.2
QLIN | ≤ 0.2
FIVS | ≤ 0.2
SPWR | ≤ 0.2
YSDE | ≤ 0.2

Variant | one-hybrid fitness for binding NBS DNA
QWSV | ≤ 0.2
SLNV | ≤ 0.2
YGED | ≤ 0.2
RKLL | ≤ 0.2
NAAI | ≤ 0.2
DRHH | ≤ 0.2
LGRP | ≤ 0.2
CTMP | ≤ 0.2
PYVS | ≤ 0.2
RIWV | ≤ 0.2
PAAF | ≤ 0.2
QLVI | ≤ 0.2
CIRN | ≤ 0.2
WSLT | ≤ 0.2
CWRS | ≤ 0.2
PCTT | ≤ 0.2
RHGN | ≤ 0.2
PNYI | ≤ 0.2
DYPG | ≤ 0.2
KYTC | ≤ 0.2
AFWS | ≤ 0.2
PVFS | ≤ 0.2
GPDR | ≤ 0.2
